Assay results published in patent US20230159653A1.

Target: ADAM17 (UniProt P78536)
Experiment: BLI (Octet Red96, 25 C), antibody captured on anti-human Fab-CH1 (FAB2G) biosensor, antigen in solution

- Kd: 3.1 nM
- koff: 0.0011 s⁻¹
- kon: 370000 M⁻¹ s⁻¹
B1: D8.P1.C1 (Fab, V domains shown)
VH: [here about 100 residues without letters]GGSMDVWGQGTLVTVSS
VL: QSVLTQPPSASGTPGQRVTISCSGSSSNIGSNYVYWYQQLPGTAPKLLIYRNNQRPSGVPDRFSGSKSGTSASLAISGLRPEDEADYYCAVWDDRLSGVVFGGGTKLTVLG
